# Hit rate of the full screen: of about 310,000 compounds, about 14,000 (4.5%) showed an effect of 50% or more. Effects have a minus sign here. The list shows a part of the results.
# Target: human ether-à-go-go-related gene (hERG) potassium channel (human, UniProt Q12809)
# Test: primary screen, population patch clamp on CHO cells stably expressing hERG
# 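Also: peak tail current of the secondary pulse compared with the same well before compound.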
# Chain of human ether-à-go-go-related gene (hERG) potassium channel (Q12809 whole entry, looked up): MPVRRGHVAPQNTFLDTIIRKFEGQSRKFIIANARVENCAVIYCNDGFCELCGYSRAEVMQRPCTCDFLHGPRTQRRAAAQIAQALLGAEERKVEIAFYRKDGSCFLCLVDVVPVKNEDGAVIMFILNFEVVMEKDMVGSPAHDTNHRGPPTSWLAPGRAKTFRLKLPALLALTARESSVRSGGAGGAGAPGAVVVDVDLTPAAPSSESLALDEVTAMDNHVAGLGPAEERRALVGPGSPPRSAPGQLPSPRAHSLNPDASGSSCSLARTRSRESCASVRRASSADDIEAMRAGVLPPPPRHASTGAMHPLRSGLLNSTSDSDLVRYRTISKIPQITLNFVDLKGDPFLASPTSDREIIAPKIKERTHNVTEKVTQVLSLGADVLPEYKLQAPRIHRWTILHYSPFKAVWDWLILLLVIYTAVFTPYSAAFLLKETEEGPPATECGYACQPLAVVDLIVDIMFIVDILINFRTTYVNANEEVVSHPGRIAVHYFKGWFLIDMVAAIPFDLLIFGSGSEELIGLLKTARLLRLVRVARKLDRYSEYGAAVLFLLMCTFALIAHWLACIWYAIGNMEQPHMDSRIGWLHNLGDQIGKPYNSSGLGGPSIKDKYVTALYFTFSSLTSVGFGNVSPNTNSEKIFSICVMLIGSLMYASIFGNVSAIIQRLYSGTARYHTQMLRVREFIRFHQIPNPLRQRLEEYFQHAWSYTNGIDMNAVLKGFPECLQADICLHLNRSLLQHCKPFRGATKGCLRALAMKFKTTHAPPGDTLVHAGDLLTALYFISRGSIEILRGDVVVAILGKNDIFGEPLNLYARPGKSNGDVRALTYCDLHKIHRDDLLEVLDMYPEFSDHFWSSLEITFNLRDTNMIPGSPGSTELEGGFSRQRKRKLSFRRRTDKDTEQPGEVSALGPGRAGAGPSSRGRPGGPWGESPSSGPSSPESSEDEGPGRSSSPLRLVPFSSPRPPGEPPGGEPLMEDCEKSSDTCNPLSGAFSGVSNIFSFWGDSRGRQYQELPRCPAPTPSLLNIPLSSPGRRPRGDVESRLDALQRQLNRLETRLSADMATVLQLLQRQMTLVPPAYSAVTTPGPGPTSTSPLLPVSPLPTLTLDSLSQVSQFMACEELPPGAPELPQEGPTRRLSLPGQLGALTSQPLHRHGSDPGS
row,Structure (SMILES),"hERG current change (%, negative = inhibition) at 10uM"
1,CCOC(=O)COc1ccc(Br)cc1/C=C\c1[nH]c(=O)[nH]c(=O)c1[N+](=O)[O-],5.23%
2,CC1CC1c1ccc(/C=C(\C#N)C(=O)Nc2ccc(Cl)cc2Cl)o1 (centres unmarked),-10.6%
3,Cc1ccc(NC(=O)Nc2cnccn2)cc1Cl,24.4%
4,Cc1ccc(C2N=C(N)Nc3nc4ccccc4n32)cc1 (centres unmarked),21.3%
5,O=C1CC(N2CCN(c3ccc(S(=O)(=O)N4CCCC4)cc3)CC2)C(=O)N1c1ccc(F)cc1 (centres unmarked),-19.3%
6,CCCCN(C(=O)c1c(C)[nH]c(C(=O)OCC)c1C)c1ccccc1,-2.68%
7,Cc1ccc(C(=O)OCC(=O)Nc2c(C)n(C)n(-c3ccccc3)c2=O)cc1[N+](=O)[O-],-4.14%
8,CCOc1ccccc1N(CC(=O)Nc1ccc2c(c1)OCCO2)S(C)(=O)=O,-3.52%
9,CCOC(=O)c1nc(Nc2ccccc2)c2ccccc2n1,-15.6%
10,CCOC(=O)c1cnc(SC)nc1Nc1cccc2ccccc12,-0.466%
11,COc1ccc(CN(C)CC2CCCN(CCc3ccc(F)cc3)C2)cc1OC (centres unmarked),-64.8%
12,CSc1nn2c(C)c(C)c(C)nc2c1C#N,-20.8%
13,O=C(Nc1ccc(S(=O)(=O)Nc2nccs2)cc1)c1cc(-c2ccncc2)nc2ccccc12,10.1%
14,O=C(CN1C(=O)c2cccc([N+](=O)[O-])c2C1=O)NCc1ccccc1,-10.8%
15,COc1ccc(C2Nc3ccccc3C(=O)N2NS(C)(=O)=O)c(OC)c1 (centres unmarked),40.5%
16,C=CCNC(=O)CN1c2cccc3cccc(c23)S1(=O)=O,14.5%
17,CCOC(=O)c1c(NC(=O)CSc2nc3c(c(=O)n(C)c(=O)n3C)n2CC)sc(C)c1C,6.72%
18,O[C@H]1[C@H](O)[C@@H](O)CN2CC[C@H](O)[C@H]12,15.2%
19,C=CCN1C(=O)c2ccc(C(=O)NCCc3ccc(F)cc3)cc2C1=O,8.87%

row,Structure (SMILES),"hERG current change (%, negative = inhibition) at 10uM"
1,CC(=O)n1cc(/C=N/NC(=O)c2ccc(Cl)cc2)c2ccccc21,10.6%
2,CS(=O)(=O)Nc1ccccc1C(=O)NCc1ccccc1Cl,-5.24%
3,O=C(COC(=O)c1ccccc1[N+](=O)[O-])NNC(=O)c1cccs1,-15.7%
4,CC(NC(=O)CCNS(=O)(=O)c1ccccc1)c1ccccc1 (centres unmarked),14.2%
5,COc1ccc(N2C(=O)C3CCCCC3C2=O)cc1NC(=O)c1ccccc1 (centres unmarked),-16.9%
6,CCN(CC(=O)NCc1cccs1)C(=O)CCCOc1ccc(C(C)(C)C)cc1,-52.6%
7,COc1ccc(S(=O)(=O)N2CCN(Cc3cccc(OC)c3OC)CC2)cc1,-1.09%
8,CC(C)[C@H](NC(=O)Nc1ccc2c(c1)OCCO2)C(=O)O,8.19%
9,Cc1ccc(CN(C)C(=O)c2cccc(S(=O)(=O)N3CCc4ccccc4C3)c2)o1,-23.8%
10,COc1ccc(OCc2cc(C(=O)N3CCN(CC4CC4)CC3)no2)c(Cl)c1,-48%
11,COc1ccc(NC(=O)COC(=O)C2CC2)cc1S(=O)(=O)N1CCCCC1,-33.2%
12,CCOC(=O)C1=C(C)Nc2ncnn2C1c1cccs1 (centres unmarked),10.1%
13,N#C/C(=C\c1c(N2CCCCCC2)nc2ccccn2c1=O)C(=O)NC1CCS(=O)(=O)C1 (centres unmarked),-4.21%
14,Cc1ccc(C2C(C(=O)c3cccs3)=C(O)C(=O)N2CCN2CCOCC2)o1 (centres unmarked),-7.39%
15,COc1ccc(-c2cc(=O)oc3cc(OCC(=O)NCC4CCC(C(=O)O)CC4)ccc23)cc1 (centres unmarked),8.5%
16,CN1CCN(S(=O)(=O)c2ccc(Cl)c3ccccc23)CC1,-1.62%
17,Cc1nnc(SCC(=O)NC2CCCc3c2cnn3-c2ccc(F)cc2F)o1 (centres unmarked),-1.23%
18,CCc1c(C)nc2ncnn2c1NCCc1ccc(OC)c(OC)c1,-17.1%
19,CC(C)(C)n1cc(C(=O)c2ccccc2)cc1-c1ccccc1,7.52%

row,Structure (SMILES),"hERG current change (%, negative = inhibition) at 10uM"
1,Cc1ccccc1NC(=S)NC(=O)/C=C/c1ccco1,21%
2,FC(F)(F)c1cccc(N2CCN(Cc3cccnc3)CC2)c1,-8.03%
3,CNCCc1ccccc1,10.6%
4,CC(CN1CCCCC1)OC(=O)c1ccc2c(c1)OCCO2.Cl (centres unmarked),-8.83%
5,CCC(=O)Nc1c(-c2cccs2)c(=O)c2ccccc2n1C,3.56%
6,Fc1cccc2sc(Nc3nnc(-c4ccccc4)o3)nc12,20.5%
7,COc1ccc(Nc2c3c(nc4ccccc24)CCC3)cc1.Cl,-70.9%
8,CC(C)Cc1nc(N2CCC(C(N)=O)CC2)c2nnn(Cc3ccccc3)c2n1,23.4%
9,Cc1ccccc1OCc1nnc(SCC(=O)Nc2ccc3c(c2)oc2ccccc23)n1C,6.62%
10,CC(C)C[C@H](NC(=O)c1nc[nH]c1C(=O)NCc1ccccc1)C(=O)OCc1ccccc1,-7.88%
11,O=C(c1nn(Cc2ccccc2)c(=O)c2ccccc12)N1CCc2ccccc2C1,-29%
12,Cc1ccc(/C(O)=C/C(=O)C(=O)NNC(=O)C(O)(c2ccccc2)c2ccccc2)cc1,14.5%
13,COc1ccc(OC)c(NC(=O)C2C3CCC(C3=C(C)C)C2C(=O)O)c1 (centres unmarked),-3.72%
14,CC(=O)c1c[nH]c2ccc(C)cc2c1=O,-3.43%
15,CCCc1cc(C(=O)N2CCCC(Nc3ccc(C)c(C)c3)C2)n(C)n1 (centres unmarked),1.01%
16,COc1ccc(N2C(=O)C3CCCN3C2c2ccc(C)cc2)cc1 (centres unmarked),7.11%
17,Cc1c(C(=O)Nc2ccccn2)oc2ccc(Br)cc12,-5.13%
18,CC(CN1c2ccccc2Sc2ccccc21)N(C)C.Cl (centres unmarked),-35.6%
